For 172 sequences, binding signal results are on record in paper PMC10668032.

Some of the results follow. At the low end of the ranking, values are background and their order means little.

The target in this assay is SIX1-Q177R homeodomain (UniProt Q15475). Description: universal protein binding microarray. The following applies: Universal all-10-mer PBM (8x60K, AMADID 030236), 300 nM GST-tagged protein, Alexa Fluor 488 anti-GST; buffer, salt, pH and temperature not stated; high values mean tight binding; most listed sequences are background and not binding sites; double strand, one strand shown.
As for GGCGGGAC, the binding signal is -0.0272 E-score.

For CAAGTGAA, the binding signal is -0.275 E-score.

As for AGGGCTAA, the binding signal was -0.15 E-score.

On to AAGCGGAT, for which the binding signal was found to be 0.0333 E-score.

As to AACGCATC, the binding signal was -0.108 E-score.

For ACTTTGAA, the binding signal was -0.332 E-score.

Regarding CTCGTGCA, the binding signal is 0.102 E-score.

As to TGTGCAAA, the binding signal was -0.0139 E-score.

With GCGCGCAA, the binding signal is -0.0272 E-score.

On to TAATAGCA, for which the binding signal is -0.0838 E-score.

For the sequence ACTTCTTG, the binding signal was determined as 0.148 E-score.

On to ATGCGTAA, for which the binding signal was -0.0507 E-score.

With ATTGAGCA, the binding signal is 0.0892 E-score.

On to GGACTTAA, for which the binding signal was -0.161 E-score.

Regarding GATCGCAC, the binding signal turned out to be 0.0949 E-score.

Consider CACGGTTA, for which the binding signal turned out to be 0.119 E-score.

Turning to CTCATCTC, the binding signal is -0.166 E-score.

Regarding AAGACGTA, the binding signal was -0.203 E-score.

For the sequence GATAGATC, the binding signal was -0.276 E-score.

For GATATGAC, the binding signal is -0.0649 E-score.

On to CGTCTAGA, for which the binding signal was -0.11 E-score.

With CGTCATCC, the binding signal is -0.0594 E-score.

Take AATTGTAG: the binding signal was -0.265 E-score.

As for CATGTTCG, the binding signal was -0.161 E-score.

Regarding AGCTCCAG, the binding signal was -0.238 E-score.

Consider TATGTGGA, for which the binding signal is -0.0367 E-score.

For the sequence CAGCTTGC, the binding signal is -0.294 E-score.

Take CCGATCCC: the binding signal was found to be 0.221 E-score.

Consider GCCACCAC, for which the binding signal is -0.0598 E-score.

On to CAGTGACA, for which the binding signal turned out to be 0.136 E-score.

For CAGATCGG, the binding signal was found to be 0.131 E-score.

GGGCCGTA: the binding signal is -0.0739 E-score.

Turning to AGAGTTGC, the binding signal is 0.135 E-score.

Consider AATATAGG, for which the binding signal was -0.0683 E-score.

On to CCGCGAGG, for which the binding signal was 0.0528 E-score.

In the case of ACTTGAAC, the binding signal was -0.0046 E-score.

Consider ATTCTCGA, for which the binding signal worked out at 0.0111 E-score.

For CCCAAAAC, the binding signal stood at 0.193 E-score.

Turning to GGGCATCA, the binding signal was -0.0627 E-score.

Consider CACAAGGG, for which the binding signal turned out to be 0.0821 E-score.

Consider CATATTCA, for which the binding signal was found to be 0.0316 E-score.

Take CTTAACTA: the binding signal was found to be 0.0826 E-score.

Turning to CCGATGCG, the binding signal was determined as 0.0743 E-score.

On to AAGGGTTG, for which the binding signal is -0.0595 E-score.

ATGGTAAG: the binding signal is -0.048 E-score.

Regarding CGCTAACA, the binding signal was 0.187 E-score.

For the sequence AAGACCTC, the binding signal is -0.143 E-score.

With CCATACCC, the binding signal was 0.218 E-score.

Regarding CCTTCTCA, the binding signal was -0.004 E-score.

Take TATATAGA: the binding signal was -0.0858 E-score.

For the sequence TCGTGTCA, the binding signal worked out at 0.443 E-score.

TCACAACA: the binding signal came out at 0.195 E-score.

As to CCAAATAG, the binding signal was -0.0763 E-score.

Take AACGATGT: the binding signal was -0.0372 E-score.

Take AGTAGCAT: the binding signal is -0.0284 E-score.

In the case of CGAGTCCG, the binding signal is -0.0809 E-score.

In the case of AGATTCTA, the binding signal was -0.191 E-score.

Take GATATCGA: the binding signal was -0.123 E-score.

Take GGAATACA: the binding signal is 0.197 E-score.

On to CAGGTATC, for which the binding signal was found to be 0.328 E-score.

AATACTCG: the binding signal stood at 0.0473 E-score.

Turning to CACTGGAC, the binding signal is 0.161 E-score.

As to AATTCAAG, the binding signal worked out at 0.0572 E-score.

In the case of ATCTCCCC, the binding signal was -0.0273 E-score.

Regarding AGACAGCC, the binding signal was -0.0899 E-score.

With ATCGTCGG, the binding signal is -0.183 E-score.

With AAGATATC, the binding signal is -0.0802 E-score.

On to ACTACAAT, for which the binding signal was -0.0425 E-score.

In the case of AATAAGCC, the binding signal was -0.188 E-score.

AATTTCAG: the binding signal was -0.308 E-score.

Turning to AGGTCACG, the binding signal was -0.197 E-score.

Turning to GCGGGGAA, the binding signal was -0.135 E-score.

Turning to AAATCGGG, the binding signal is -0.11 E-score.

Regarding GAATTTGC, the binding signal was -0.143 E-score.

As to ATGTCCCA, the binding signal is -0.342 E-score.

With AATTACCG, the binding signal was -0.134 E-score.

For AGGACAAC, the binding signal worked out at 0.0718 E-score.

For the sequence AAGGGACC, the binding signal was -0.0833 E-score.

Consider CTCTGTGC, for which the binding signal was -0.214 E-score.

Regarding CATATGTC, the binding signal is -0.244 E-score.

For the sequence CCCAGGTC, the binding signal came to 0.0474 E-score.

As for AGCCACTC, the binding signal is -0.191 E-score.

As to ACGACATG, the binding signal was -0.0567 E-score.

Take GTGTGCGA: the binding signal worked out at 0.173 E-score.

In the case of ACAACGGC, the binding signal is -0.236 E-score.

For the sequence CCCCTCCA, the binding signal came to 0.195 E-score.

In the case of CACATCGA, the binding signal is -0.117 E-score.

For the sequence GCCTCCAA, the binding signal was -0.118 E-score.

AATTAACA: the binding signal was found to be 0.14 E-score.

Turning to GATCCTCC, the binding signal amounted to 0.0993 E-score.

For CGTACCGC, the binding signal worked out at 0.0133 E-score.

For GTAAGCAC, the binding signal was 0.189 E-score.

As for CTGGCGTC, the binding signal turned out to be 0.0997 E-score.

For the sequence AAGAGGGG, the binding signal was found to be 0.0481 E-score.

Consider GCGCTACC, for which the binding signal turned out to be 0.0841 E-score.

Turning to GTCCCGGA, the binding signal is -0.0739 E-score.

As for CACACTTA, the binding signal was determined as 0.204 E-score.

For the sequence AGTTCCTC, the binding signal was -0.18 E-score.

Take AAACTAGG: the binding signal is -0.0756 E-score.

For the sequence CTTAACAA, the binding signal was -0.238 E-score.

In the case of AACGTTTC, the binding signal was -0.232 E-score.

CTGGTTCC: the binding signal was -0.0794 E-score.

Take AACGGTCA: the binding signal was -0.176 E-score.

Regarding CAGACTTA, the binding signal was -0.154 E-score.

For GCGTATAA, the binding signal was -0.0799 E-score.

As to AGTTATGG, the binding signal is -0.168 E-score.

In the case of AGTACAGG, the binding signal is -0.0732 E-score.

On to CGTTGAAA, for which the binding signal is -0.194 E-score.

Turning to AAACGAAA, the binding signal is -0.0501 E-score.

On to GCAACGCA, for which the binding signal was -0.164 E-score.

Regarding ACGTTTCA, the binding signal was -0.0995 E-score.

For the sequence GCCGCAAC, the binding signal was found to be 0.0161 E-score.

For the sequence CTTGTACC, the binding signal amounted to 0.0467 E-score.

As to AGAGGCCA, the binding signal was -0.186 E-score.

GCTTCTTA: the binding signal was -0.197 E-score.

As to TAAGATTA, the binding signal is -0.0197 E-score.

AATACGGA: the binding signal is -0.151 E-score.

Take ACGCGGCA: the binding signal came to 0.0942 E-score.

CCTGAGGA: the binding signal is 0.0873 E-score.

Take CGTGCCAA: the binding signal is -0.043 E-score.

With CCTACACG, the binding signal is 0.398 E-score.

Take GTCTTCCA: the binding signal is -0.168 E-score.

For AACGGTTG, the binding signal is -0.291 E-score.

Take ACAAGGCG: the binding signal is -0.0518 E-score.

As to CAAGTTGC, the binding signal was -0.0215 E-score.

For the sequence ATACATTC, the binding signal turned out to be 0.082 E-score.

As to GACACGAC, the binding signal turned out to be 0.436 E-score.

For the sequence AAGTTTAG, the binding signal is -0.115 E-score.

Consider ACCGTGTC, for which the binding signal was 0.428 E-score.

As to GATCAGCC, the binding signal is -0.0407 E-score.

Take GTGATCAC: the binding signal was determined as 0.103 E-score.

As for GATTCACA, the binding signal worked out at 0.203 E-score.

For the sequence AACGTGCC, the binding signal is -0.234 E-score.

As for CTCCGGTC, the binding signal is 0.0249 E-score.

For the sequence AGCAACGA, the binding signal is -0.0478 E-score.

Turning to ACATTGCC, the binding signal was -0.264 E-score.

Take ACATTCCT: the binding signal is -0.178 E-score.

Turning to TGTCGGAA, the binding signal was 0.233 E-score.

Regarding ACCCATCC, the binding signal came to 0.0184 E-score.

Turning to GTGTCTTA, the binding signal was 0.363 E-score.

In the case of CAGAACAA, the binding signal is -0.0327 E-score.

CGTTTGCC: the binding signal was -0.135 E-score.

As to AGCACTAT, the binding signal is -0.0435 E-score.

With ATCTGATA, the binding signal is 0.123 E-score.

For the sequence TACGGCAA, the binding signal was -0.0153 E-score.

In the case of AGCTACCG, the binding signal is -0.34 E-score.

Consider CAGAACGG, for which the binding signal came out at 0.0106 E-score.

In the case of GCAATGGC, the binding signal was -0.0915 E-score.

CCCAGTAA: the binding signal worked out at 0.0691 E-score.

For the sequence CTGGGGAC, the binding signal is -0.0813 E-score.

In the case of ACAGTTCT, the binding signal is -0.16 E-score.

With CAAAAATG, the binding signal was 0.00455 E-score.

Turning to CTCCCACA, the binding signal is 0.0811 E-score.

With TCAAAGCA, the binding signal is -0.000205 E-score.

Turning to CGGGAGAA, the binding signal was -0.0182 E-score.

Turning to TCGGCGCA, the binding signal is -0.109 E-score.

On to AATCAGGA, for which the binding signal is -0.187 E-score.

With ACGAAGCC, the binding signal was -0.136 E-score.

With AGTCGATC, the binding signal came to 0.113 E-score.

For GCATCTCA, the binding signal is -0.207 E-score.

Consider TGCTCCAA, for which the binding signal is -0.113 E-score.

GCCGTCCA: the binding signal is -0.134 E-score.

Regarding ACAGTTAA, the binding signal stood at 0.0701 E-score.

On to CAAAGCAC, for which the binding signal stood at 0.0574 E-score.

For AATTCTAG, the binding signal is -0.0596 E-score.

Regarding ACTAGCTG, the binding signal is -0.0464 E-score.

AGCGATGG: the binding signal was -0.268 E-score.

For the sequence GTCAGCAC, the binding signal amounted to 0.0873 E-score.

As for CCTCGACG, the binding signal came to 0.0464 E-score.

Take CCGCACAC: the binding signal was determined as 0.303 E-score.

For GTGCATCA, the binding signal is -0.104 E-score.

AGAATAAT: the binding signal was -0.0581 E-score.
